Measured values reported in PubChem BioAssay AID1956 (SRMLSC, 2009).
The other results are listed elsewhere or left out. The main result of the screen is listed elsewhere. These columns were measured beside it and carry no call.

Assay: enhancers of HSV replication in host cells, fold increase, host cell viability (AID 1956); note: tested in PC3 cells
Settings: HSV replication augmentation in cells; fold increase: measured here: primary screen fold increase 10 uM, at 10 µM, stronger effect = higher value; viability: measured here: host cell viability series, at 25 µM, stronger effect = lower value
For `Oc1c(Cl)cc(Cl)cc1C=Nc1ccccc1N1CCCC1`, the fold increase was 1.33 and the viability was 103%. With `COCCCn1c(=O)/c(=C\c2ccccc2OC(C)C)s/c1=C(/C#N)C(=O)Nc1ccc(C(=O)O)cc1` the fold increase was 1.65 and the viability was 101%. With `COc1ccc(CNC(=O)/C(C#N)=C2\N=C(NC(=O)c3cccs3)c3ccccc32)cc1` the fold increase was 1.37 and the viability was 95.2%. Work on `O=C(COC(=O)c1cccnc1)Nc1ccc2c(c1)OCO2` yielded a fold increase of 1.41 and a viability of 92.9%. `Cc1cc(/C=N/NC(N)=S)c(O)c(/C=N/NC(N)=S)c1` gave a fold increase of 5.59 and a viability of 87.2%. In the case of `O=C(O)COCC(=O)Nc1ccccc1-c1ccccc1`, the fold increase is reported as 1.43 and the viability is reported as 93.8%. Molecule `CCOc1ccc(N2C(=O)C3Sc4[nH]c(=O)sc4C(/C=C/c4ccccc4)C3C2=O)cc1` (centres undefined) has a fold increase of 1.6. Molecule `O=C(O)c1ccccc1C1=Nc2ccc(O)cc2Oc2cc(O)ccc21` has a fold increase of 2.03 and a viability of 99.6%. With `O=C(CC1SC(=Nc2ccc(O)cc2)NC1=O)Nc1ccccc1` (centres undefined) the fold increase was 1.35 and the viability was 87.1%. `CCOC(=O)c1ccc(NC(=O)COc2cc(=O)n(CC)c3ccccc23)cc1` showed a fold increase of 1.35 and a viability of 95.6%. Work on `O=c1[nH]c2ccc(Cl)cc2c(-c2ccccc2)c1SC(=S)N1CCCCC1` yielded a fold increase of 1.34. In the case of `Cn1cccc1/C=C1\CCC/C(=C\c2cccn2C)C1=O`, the fold increase is reported as 4.16 and the viability is reported as 95.2%. Molecule `CC(=O)NS(=O)(=O)c1ccc(Nc2ccc([N+](=O)[O-])c3nonc23)cc1` has a fold increase of 1.33 and a viability of 93.4%. `O=C(O)CC/C(=N/NC(=O)CNC(=O)Cc1ccccc1)c1ccccc1` showed a fold increase of 1.33 and a viability of 98.2%. With `CCOC(=O)c1c(/N=C/c2ccc(O)cc2O)sc2c1CCC2` the fold increase was 2.42 and the viability was 101%. `CC(=O)Oc1cc2c(cc1Cl)C1(CC(c3ccccc3Cl)O2)CC(C)(C)NC(=S)N1` (centres undefined) showed a fold increase of 1.4. Molecule `O=c1c[n+]([O-])c2ccccc2n1OCc1c(F)cccc1F` has a fold increase of 1.28 and a viability of 96.2%. For `Cc1[nH]c2ccccc2c1/C=N/Nc1ccc([N+](=O)[O-])cc1`, the fold increase was 1.79 and the viability was 87.5%. `CS(=O)(=O)N(CC(=O)N1CCC(C(N)=O)CC1)c1ccc(Cl)c(C(F)(F)F)c1` showed a fold increase of 1.36 and a viability of 92.5%. Work on `CNCCCNCc1ccc(SC)cc1` yielded a fold increase of 1.39. `CC(=O)C1=C(C)NC(SCC(=O)c2ccc(Cl)cc2)=C(C#N)C1c1ccco1` (centres undefined) gave a fold increase of 1.37 and a viability of 72.8%. In the case of `COc1cc(/C=C2\SC(=S)N(NS(=O)(=O)c3ccccc3)C2=O)ccc1O`, the fold increase is reported as 7.91 and the viability is reported as 95.1%. For `COC(=O)C1=C(C)NC(=O)/C1=C\c1cc(C)n(-c2c(C)cccc2C)c1C`, the fold increase was 1.47 and the viability was 72.3%. For `Oc1c(Cl)cc(Cl)cc1/C=C/c1ccc2cccc(O)c2n1`, the fold increase was 3.88. In the case of `CCO/C=C1\N=C(c2ccc(F)cc2)OC1=O`, the fold increase is reported as 1.4. With `O=C1c2ccccc2C(Nc2ccc3c(c2)OCCO3)N1Cc1ccccc1` (centres undefined) the fold increase was 1.34 and the viability was 97.1%. `Cc1ccc(S(=O)(=O)N2CCN(C(C)C)CC2)cc1` gave a fold increase of 1.36 and a viability of 90%. In the case of `CC(C)(C)c1cc[n+](-c2[nH]c(=O)sc2/C=N/NC([S-])=Nc2ccccc2)cc1`, the fold increase is reported as 2.28 and the viability is reported as 93.9%. `O=C(COC(=O)c1ccc(Br)o1)NCC1CCCO1` (centres undefined) gave a fold increase of 1.34 and a viability of 95.9%. In the case of `O=c1cc(-c2ccccc2)nc2cc(-c3ccco3)[nH]n12`, the fold increase is reported as 1.49 and the viability is reported as 95.3%. In the case of `N#C/C(=C/c1ccc(-c2ccccc2)o1)c1nc(-c2cccs2)cs1`, the fold increase is reported as 7.74. Work on `CCNC(=S)N/N=C/c1sc(N2CCCCC2)nc1-c1cccs1` yielded a fold increase of 1.6 and a viability of 92.2%. `Cc1cc(O)c(C(C)C)cc1NC(=O)c1cccc(Cl)c1` showed a fold increase of 1.41 and a viability of 91.9%. `O=C(Nc1cccc(Br)c1)c1ccccc1-c1ccccc1` showed a fold increase of 1.33 and a viability of 95.2%. Work on `CCn1c(-c2csc(-c3ccccc3)n2)n[nH]c1=S` yielded a fold increase of 1.19. In the case of `CN(C)c1ccc(C(c2ccc(N(C)C)cc2)c2ccc([N+](=O)[O-])cc2)cc1`, the fold increase is reported as 1.35 and the viability is reported as 88.1%. In the case of `C(=N\n1cnnc1)/c1cccn1-c1ccccc1`, the fold increase is reported as 1.41 and the viability is reported as 98.5%. With `Cn1c(=O)oc2cc(S(=O)(=O)N3CCN(c4ccc(F)cc4)CC3)ccc21` the fold increase was 1.48 and the viability was 98%. Molecule `CS(=O)(=O)N(CC(=O)Nc1ccccc1-c1ccccc1)c1ccc(F)cc1` has a fold increase of 1.51 and a viability of 97.3%. `N#C/C(=C/c1ccc(-c2ccc(S(N)(=O)=O)cc2)o1)c1nc2ccccc2s1` showed a fold increase of 8.07 and a viability of 69.6%. Work on `Nc1ccc(C(=O)OCC(=O)NC2CCCc3ccccc32)cc1[N+](=O)[O-]` (centres undefined) yielded a fold increase of 1.17. `Cc1c(C(=O)O)cccc1-n1c(C)cc(/C=N/Nc2ccc([N+](=O)[O-])cn2)c1C` gave a fold increase of 1.34 and a viability of 95.6%. With `CCCCc1ccc(/C=C2\C(=O)c3ccccc3C(O)=C2C(=O)OCC)cc1` the fold increase was 2.31 and the viability was 89.7%. `Cn1cccc1Cc1nnc(SCC(=O)N2CCOCC2)n1CCc1ccccc1` gave a fold increase of 1.37 and a viability of 95.1%. `O=C(O)c1cc2c(ccc3ccccc32)oc1=O` gave a fold increase of 1.33 and a viability of 106%. Work on `C1=C(c2ccc(-c3ccccc3)cc2)Nc2ncnn2C1c1ccco1` (centres undefined) yielded a fold increase of 5.35. In the case of `Nc1cc2nc3ccccc3oc-2cc1=O`, the fold increase is reported as 1.91 and the viability is reported as 80.2%. Work on `CN(c1ncc(C(F)(F)F)cc1Cl)N1C(=O)c2cccc([N+](=O)[O-])c2C1=O` yielded a fold increase of 1.38 and a viability of 93.8%. With `CC(C)c1ccc(N2C(=O)/C(=C/N(C)C)SC2=S)cc1` the fold increase was 1.37 and the viability was 89.6%. For `COc1cc(/C=C2\SC(=S)N(Nc3ncc(C(F)(F)F)cc3Cl)C2=O)ccc1O`, the fold increase was 4.08 and the viability was 87.1%. `CC(=O)c1cc(OC(=O)c2ccncc2)ccc1OC(=O)c1ccncc1` gave a fold increase of 1.54 and a viability of 98.6%. Work on `O=[n+]1c2c(n([O-])c3cc(F)c(N4CCCC4)cc31)CCC2` yielded a fold increase of 1.94 and a viability of 99.2%. Molecule `CC1CCN(C(=S)c2cn(Cc3ccc(F)cc3)c3ccccc23)CC1` has a fold increase of 1.28. `C=CCn1c(NC(=O)c2ccccc2Cl)c(C#N)c2nc3ccccc3nc21` gave a fold increase of 1.45 and a viability of 89.1%. Work on `Cc1cc(O)ccc1Nc1nc2ccccc2nc1Nc1ccc(O)cc1C` yielded a fold increase of 1.99 and a viability of 90.2%. `Cn1c(=O)c(Nc2ccc(Cl)cc2)c2c3c(cccc31)C(=O)c1ccccc1-2` gave a fold increase of 4.76. With `O=C(NCC1CCCO1)c1ccc(CS(=O)(=O)c2c(Cl)cccc2Cl)o1` (centres undefined) the fold increase was 1.37 and the viability was 92.3%. Molecule `O=C1NCCCC2c3cc(O)c4ccccc4c3OC12N1CCCCC1` (centres undefined) has a fold increase of 1.25 and a viability of 16.9%. Work on `Cc1cccc(/N=C/c2c(O)cc(C)oc2=O)n1` yielded a fold increase of 2.4 and a viability of 94.7%. `COC(=O)c1c(C)[nH]c(C(=O)CC#N)c1C` showed a fold increase of 1.45 and a viability of 97.2%. `CCOn1c(=O)c[n+]([O-])c2ccccc21` gave a fold increase of 2.98 and a viability of 93.5%. With `Cc1cc(C)n2nc(S(=O)(=O)NCCc3ccccc3)nc2n1` the fold increase was 1.49 and the viability was 97.8%. `O=C1CCC/C(=N/NC(=O)c2sc3ccccc3c2Cl)C1` showed a fold increase of 2.45 and a viability of 102%. With `CCCCc1nnc(NC(=O)C(C)Sc2nc(C)cc(=O)[nH]2)s1` (centres undefined) the fold increase was 1.32. For `CCN(CC)c1ccc(/C=C(/C#N)C(=O)NCc2ccccc2)o1`, the fold increase was 6.13 and the viability was 92.1%. `CC1=CC(C)(C)Nc2ccc(OC(=O)CN3C(=O)C4CCCCC4C3=O)cc21` (centres undefined) showed a fold increase of 1.66 and a viability of 52.5%. Work on `CCOC(=O)/C(C#N)=C/C=C1\C=Cc2ccccc2N1CC` yielded a fold increase of 1.73 and a viability of 96.8%. Work on `Cc1cc(C(=O)COc2cccc3cccnc23)c(C)n1C` yielded a fold increase of 1.35 and a viability of 90.5%. In the case of `CN1CCN(CC(=O)N2c3ccc(S(=O)(=O)NCCNC(=O)OC(C)(C)C)cc3C(=O)Nc3cccnc32)CC1`, the fold increase is reported as 1.42 and the viability is reported as 93.5%. `Cc1ccc(/C=C2/NC(=O)N(Cc3ccccc3F)C2=O)s1` showed a fold increase of 1.43 and a viability of 84%. `COc1ccc(OCC(=O)Nc2cc(-c3nn4c(C)nnc4s3)ccc2C)cc1` gave a fold increase of 1.5 and a viability of 104%. `Cn1c(CN2CCOCC2)nnc1SCC(=O)Nc1ccc2c(c1)OCCO2` showed a fold increase of 1.33 and a viability of 94.8%. In the case of `COCCCNC(=O)/C=C/c1ccc(Cl)cc1`, the fold increase is reported as 1.5 and the viability is reported as 106%. For `CC1(C)Cc2c(c(-c3ccco3)[nH]c(=O)c2C#N)CS1`, the fold increase was 1.48 and the viability was 96.4%. Molecule `Cc1ccccc1C(=O)NNc1ccc([N+](=O)[O-])cc1` has a fold increase of 1.35 and a viability of 97.4%. With `CCn1cc(C(=O)O)c(=O)c2cnc(N3CCN(C(=S)NC(=O)c4ccc(Br)cc4)CC3)nc21` the fold increase was 1.44 and the viability was 97.3%. With `N#CC1=C(N)C(C#N)(C#N)[C@H](c2cccnc2)[C@H]2CN(C(=O)OCc3ccccc3)CC=C12` the fold increase was 1.4 and the viability was 88.2%. `CCOC(=O)c1c(NC(=O)C2COc3ccccc3O2)sc2c1CCN(Cc1ccccc1)C2` (centres undefined) showed a fold increase of 1.33 and a viability of 75.4%. Work on `C=CCn1c(=S)[nH]c2ccccc2c1=O` yielded a fold increase of 1.13. With `O=C(N/N=C/c1cc(Br)c(Br)o1)c1cccnc1` the fold increase was 1.4 and the viability was 90.8%. With `O=C1N/C(=N\S(=O)(=O)Cc2ccccc2)S/C1=C/c1cc([N+](=O)[O-])ccc1O` the fold increase was 2.59 and the viability was 93.5%. Work on `CCN1C(=O)/C(=C/C=C2\N(CC)c3cc(S(=O)(=O)N(C)C)ccc3N2c2ccccc2)SC1=S` yielded a fold increase of 3.25 and a viability of 74.1%. In the case of `Cc1ccc(S(=O)(=O)N2CCOCC2)cc1C(=O)Nc1ccc(C(N)=O)cc1`, the fold increase is reported as 1.37 and the viability is reported as 100%. `N#C/C(=C(/O)CSc1ccccn1)c1nc2ccccc2s1` showed a fold increase of 1.4 and a viability of 101%. For `COc1ccc(-n2c(SCC(=O)O)nc3sc4c(c3c2=O)CCC4)cc1`, the fold increase was 1.32. With `COc1ccc2[nH]c(C)c(CCN(Cc3cccs3)C(=S)Nc3ccccc3OC)c2c1` the fold increase was 1.41 and the viability was 104%. Work on `CC(=O)Nc1ccc(S(=O)(=O)Nc2cc(-c3ccccc3)nn2C)cc1` yielded a fold increase of 1.33 and a viability of 95.5%. Molecule `COCCCn1c(O)c(/C=C2\N=C(C#N)C(=Nc3ccc(C)cc3)O2)sc1=S` has a fold increase of 1.48. Molecule `CC(=Nc1ccccc1O)c1sc2ccccc2c1O` has a fold increase of 3.79 and a viability of 98.5%. `COc1ccc(Nc2ccc(S(=O)(=O)N3CCCCC3)cc2[N+](=O)[O-])cc1Cl` showed a fold increase of 1.4 and a viability of 83.2%. In the case of `O=C(CCc1ccccc1)NCCSCc1c(F)cccc1Cl`, the fold increase is reported as 1.37 and the viability is reported as 103%. Molecule `O=C(O)Cc1sc(N/N=C\c2ccncc2)nc1-c1ccccc1` has a fold increase of 1.88 and a viability of 95.8%. In the case of `Cc1ccc(SCc2cn3c(C)cc(C)nc3n2)cc1`, the fold increase is reported as 1.4 and the viability is reported as 95%. Work on `O=C1CCCc2c1nc(-c1ccc(F)cc1)n2O` yielded a fold increase of 1.37 and a viability of 99.7%. `COc1cc(/C=C2/SC(=S)N(c3c(C)n(C)n(-c4ccccc4)c3=O)C2=O)ccc1O` gave a fold increase of 2.2 and a viability of 100%.
